Out of some 110,000 compounds screened, about 230 (0.21%) showed an effect of 50% or more. This is one part of the list.
Target: DPAP1 (Plasmodium falciparum, UniProt Q8IIJ9)
Experiment: primary screen, percent inhibition; read by cleavage of a fluorogenic dipeptide substrate; higher = more effect of the substance
Set-up: species or system P. falciparum D10 trophozoite lysates; single well
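Further: 30 min substrate incubation versus DMSO and 10 µM JCP410 controls.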

Chain of DPAP1 (Q8IIJ9 whole entry, looked up): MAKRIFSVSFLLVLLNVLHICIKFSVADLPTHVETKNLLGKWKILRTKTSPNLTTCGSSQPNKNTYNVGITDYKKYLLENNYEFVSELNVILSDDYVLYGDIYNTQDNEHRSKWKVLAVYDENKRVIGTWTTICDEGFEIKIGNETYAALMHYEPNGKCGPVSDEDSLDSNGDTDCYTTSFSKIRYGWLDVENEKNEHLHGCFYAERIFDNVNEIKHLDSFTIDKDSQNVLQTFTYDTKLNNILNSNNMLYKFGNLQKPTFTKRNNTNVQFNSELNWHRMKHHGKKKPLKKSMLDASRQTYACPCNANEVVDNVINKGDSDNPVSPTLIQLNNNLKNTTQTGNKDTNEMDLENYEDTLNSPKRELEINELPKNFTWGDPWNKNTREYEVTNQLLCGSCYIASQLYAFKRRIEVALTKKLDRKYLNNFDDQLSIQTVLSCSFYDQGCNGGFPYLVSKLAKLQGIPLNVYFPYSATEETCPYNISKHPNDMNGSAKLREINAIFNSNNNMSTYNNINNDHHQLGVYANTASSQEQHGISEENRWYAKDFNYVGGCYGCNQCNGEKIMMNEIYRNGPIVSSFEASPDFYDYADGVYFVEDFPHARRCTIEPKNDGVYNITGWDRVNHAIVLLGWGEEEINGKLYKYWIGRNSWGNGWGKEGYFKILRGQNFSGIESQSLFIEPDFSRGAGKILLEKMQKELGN

Structure (SMILES) | % Inhibition @ 10 uM
Cc1cc(Br)ccc1NC(=O)CCN1C(=O)c2ccccc2S1(=O)=O | -4.65%
COc1ccc(C2C(C#N)=C(N)OC3=C2C(=O)CC(C)C3)cc1Br (centres unmarked) | -2%
COc1ccc(CC(=O)Nc2ccc(Br)c(C)c2)cc1 | -3.74%
CC1CCCCN1CCCNC(=O)CCc1nnc2n(Cc3ccccc3)c(=O)c3ccccc3n12 (centres unmarked) | 4.16%
Cc1ccc(Nc2cc(=O)n(C)c(=O)n2C)cc1C | 0.392%
CC(C)(C)C1=NN(c2c(Cl)cc(Cl)cc2Cl)C(=O)C1 | -1.77%
CCc1nc(S)c2c(n1)-c1ccccc1CC21CCCCC1 | -0.807%
O=C(c1scc2c1CCCC2)N1CCN(c2ccc(O)cc2)CC1 | -9.6%
CCN(CC)CCN1C(=O)C(O)=C(C(=O)c2ccc(F)cc2)C1c1ccc(Cl)cc1 (centres unmarked) | 2.55%
CC(C)Cc1ccc(S(=O)(=O)N2CCN(Cc3noc(CCC(=O)N4CCCC4)n3)CC2)cc1 | 15.8%
CCc1cc2c(=O)n(CC(=O)Nc3ccc(OC)cc3)cnc2s1 | -7.96%
Cc1ccc2nc3c(cc(C(=O)NC4CCCCC4)c(=N)n3CCN3CCOCC3)c(=O)n2c1 | -1.47%
O=C(NCCc1ccccn1)/C(=C/c1ccco1)NC(=O)c1ccccc1 | 2.44%
O=C(c1ccco1)N1CCN(C(=O)c2ccc(Br)o2)CC1 | -3.21%
CCOc1ccc(-c2nc(C#N)c(NCCN3CCOCC3)o2)cc1 | 0.315%
CC(C)(C)NC(=O)c1ccc2c(c1)C(=O)N(C1CCCCC1)C2=O | -16.1%
COc1ccc(CCNC(=O)CN2CC(=O)N3CCCC3C2=O)cc1OC (centres unmarked) | 1.23%
CCCOc1ccc(/C=c2\sc3nc(-c4ccc(F)cc4)nn3c2=O)cc1 | 0.561%
CC(/N=C/c1nc2ccccc2n1C)C12CC3CC(CC(C3)C1)C2 (centres unmarked) | 7.24%
Cc1ccc(C(=O)N/C(=C/c2ccc(Cl)cc2)C(=O)NCCC(=O)O)cc1 | -7.15%
Cc1cccc(NC(=O)C2CCCN2C(=O)OCc2ccccc2)n1 (centres unmarked) | -2.39%
Cc1nn(C(C)C(=O)N2CCC3(CC2)OCCO3)c(=O)c2c1sc1ccccc12 (centres unmarked) | 0.544%
COc1ccc(CN2CCCCCC2)c(C)c1C | -0.127%
CCOc1ccc(NC(=O)CN(c2ccc(Br)cc2)S(C)(=O)=O)cc1 | 2.02%

Structure (SMILES) | % Inhibition @ 10 uM
C=CCc1cccc2cc(C(=O)N3CCN(C(=O)c4ccccc4)CC3)c(=O)oc12 | 0.484%
CCOC(=O)N1CCN(C(=O)N[C@@H](CSCc2ccccc2)C(=O)NCC#N)CC1 | 3.1%
Cc1ccnc(NS(=O)(=O)c2ccc(NC(=O)c3ccc(Br)o3)cc2)n1 | 0.331%
COc1ccc(CCCC(=O)O)c(C)c1 | -3.27%
CCOCCCNC(=O)c1[nH]c2cc(OC)ccc2c1Sc1ccc(Cl)cc1 | -3.6%
COC(=O)CC1(c2ccccc2)C(=O)c2ccccc2C1=O | -2.42%
CCOC(=O)N(C)c1c(N)n(Cc2ccccc2)c(=O)[nH]c1=O | -5.13%
CCOc1ccc(C(=O)N2CCN(Cc3ccccc3)CC2)cc1 | 2.93%
O=C(Nc1cccc(C(F)(F)F)c1)C(=O)NC1CCCCC1 | -4.01%
CCc1ccc(C2c3c(oc4cc(C)c(C)cc4c3=O)C(=O)N2CCCN(C)C)cc1 (centres unmarked) | 2.31%
COc1cc(C2CC(=O)N3CN(C4CCCCC4)CSC3=C2C#N)cc(OC)c1OC (centres unmarked) | 2.14%
CC(=O)N1N=C2c3ccccc3OCC2C1c1ccccc1 (centres unmarked) | 1.92%
Cc1nnc(C)n1/N=C/c1c(O)ccc2ccccc12 | 7.75%
N=c1c2c3c(sc2ncn1Cc1ccccc1)CCCC3 | -3.4%
O=C1NC(=O)N(Cc2ccccc2)C(=O)/C1=C/c1cn(Cc2ccccc2)c2ccccc12 | 5.98%
Cc1ccc2nc(-c3ccc(NC(=O)c4ccccc4C(=O)O)cc3)sc2c1 | 11.5%
N#Cc1c(O)nc2c(c1-c1ccncc1)CCc1ccccc1-2 | -2.83%
O=C(NCCC1=CCCCC1)C1CCC(CNc2c(N3CCCC3)c(=O)c2=O)CC1 (centres unmarked) | -0.447%
CC(=O)OCC12COC(C)C(C(C)=CC1C)C2C (centres unmarked) | 1.66%
O=C(O)c1[nH]c2ccccc2c1CC(=O)N1CCC(Cc2ccccc2)CC1 | 13.5%
O=C(c1ccc2nc(/C=C(\O)c3ccc(Cl)cc3)c(O)nc2c1)N1CCOCC1 | -9.95%
CCOCCCNC(=O)/C(C#N)=C/c1c(Oc2ccc(C(C)(C)C)cc2)nc2ccccn2c1=O | 7.65%
O=C(COc1ccccc1)Nc1cnn(Cc2c(Cl)cccc2Cl)c1 | 10.6%
Cc1cccc(OCC(=O)Nc2sc(Cc3ccccc3)c(C)c2C(N)=O)c1 | -3.43%

Structure (SMILES) | % Inhibition @ 10 uM
CC(C)(C)c1cc(C=C2C(=O)NC(=O)NC2=O)cc(C(C)(C)C)c1O | 3.47%
Cc1cccc2cc(C=O)c(SCC(=O)O)nc12 | -0.703%
CCC1=C([N+](=O)[O-])C(c2ccc3c(c2)OCO3)NC(=O)N1 (centres unmarked) | 6.61%
N#C[C@H](CCCCNC(=O)OCc1ccccc1)NC(=O)[C@H](CC1CCCCC1)NC(=O)OCc1ccccc1 | -8.26%
Cc1ccc(N(CC(=O)N2CCOCC2)S(C)(=O)=O)cc1Cl | 5.27%
CCCC(=O)n1nc(C)c2c1CC(C)(C)CC2=O | -0.902%
Cc1oc(-c2ccc(C(=O)NCCC3=CCCCC3)cc2)nc1CS(=O)c1ccccc1 (centres unmarked) | 2.32%
CC1(C)CC(NC(=O)C(=O)NCCc2ccc(Cl)cc2)CC(C)(C)N1 | -0.13%
Cn1c(C(=O)NCc2ccccc2)cc2c(=O)n3ccccc3nc21 | 3.72%
COc1ccc(Cl)cc1NC(=O)c1cnn2c1NC(c1cccs1)CC2C(F)(F)F (centres unmarked) | -6.41%
O=C(Nc1ccccc1)c1cccnc1 | 1.21%
COc1ccc(C(=O)Nc2c3c(nn2-c2ccc(F)cc2)CSC3)cc1 | 11.3%
CC[C@H](NC(=O)[C@H](CC1CCCCC1)/N=C(\NS(C)(=O)=O)c1ccccc1)C(=O)c1nc2ccccc2o1 | 0.079%
O=C(O)c1cc(-c2ccco2)nc2ccc(Br)cc12 | -1.63%
O=c1cccc2n1C[C@H]1C[C@@H]2CN(Cc2c(F)cccc2Cl)C1 | 1.8%
CCCC1=NN2C(=N)/C(=C/c3ccc(OC)c(OC)c3OC)C(=O)N=C2S1 | -1.06%
COc1ccc2c(CNCc3ccccc3Cl)c(C(=O)O)n(Cc3ccccc3C)c2c1 | -4.07%
O=C1NC(=S)NC(=O)C1=Cc1ccccc1[N+](=O)[O-] | 2.51%
COCC(=O)Nc1ccc(S(=O)(=O)N2CCC(C)CC2)cc1 | -1.63%
Cc1ccc(-n2nc(C)c3c(C(F)(F)F)cc(=O)n(CC(=O)N4CCCC4)c32)cc1 | -0.298%
O=C(O)c1ccc(CN2CC(=O)N3CCCCC3C2=O)cc1 (centres unmarked) | 1.63%
CCN(CC)S(=O)(=O)c1ccc(N2CCN(CCO)CC2)nc1 | -3.33%
Cc1[nH]c2ccccc2c1CCCNC1CCCCC1 | -0.744%
CCn1c(C(=O)O)c(CNCc2ccc(OC)cc2)c2ccccc21 | 5.09%

Structure (SMILES) | % Inhibition @ 10 uM
O=C1N=C(N2CCOCC2)S/C1=C/c1ccc(-c2ccccc2Cl)o1 | -12.7%
COc1cc(OC)cc(-c2cc(NC(C)=O)[nH]n2)c1 | -1.03%
COc1cccc(-c2nc(Cn3c(=O)cc(C)c4c(C)nn(-c5cccc(F)c5)c43)c(C)o2)c1OC | -5.79%
CC(CCc1ccccc1)N1CCN(CCO)CC1 (centres unmarked) | -7.35%
CCC(C)[C@H](NC(=O)OCc1ccccc1)C(=O)N[C@@H](CC(C)C)C(=O)N[C@@H](C)C(=O)N[C@H](/C=C/S(C)(=O)=O)CC(C)C (some centres unmarked) | 0.079%
CC(CCc1ccccc1)N1CCN(c2cccc(Cl)c2)CC1 (centres unmarked) | -5.44%
CCOC(=O)C1=C(C)OC(N)=C(C#N)C1c1cccc(C)c1 (centres unmarked) | -0.261%
COC(=O)c1ccn(CC(=O)NC2CCCCC2)n1 | 5.45%
N#CCNC(=O)C1(NC(=O)N2CCN(c3ncccn3)CC2)CCCCC1 | -1.41%
COCCNC(=O)/C(C#N)=C/c1c(Oc2ccc(C(C)(C)C)cc2)nc2c(C)cccn2c1=O | 2%
CCc1ccc(CNCc2c(C(=O)O)n(Cc3ccccc3)c3cc(C)ccc23)cc1 | 6.42%
O=C(O)c1ccc(N2C(=O)c3ccc(Oc4ccc([N+](=O)[O-])cc4)cc3C2=O)cc1 | -1.77%
N=c1c(C(=O)NCc2ccco2)cc2c(=O)n3ccccc3nc2n1CCN1CCOCC1 | 6.7%
Cc1ccc(-c2cc(C(F)(F)F)n3ncc(C(=O)N4CCN(Cc5ccccc5)CC4)c3n2)cc1 | 4.86%
COc1ccc2cc3cc(C(=O)N4CCN(C5CCCCC5)CC4)oc3nc2c1 | 1.9%
COc1cccc2c(O)c(NC(=O)N3CCN(C(=O)c4ccco4)CC3)cnc12 | -4.54%
CCOc1ccc(NS(=O)(=O)c2ccc(NC(C)=O)cc2)cc1 | 2.4%
Cc1ccccc1COC(=O)N[C@@H](CC(C)C)C(=O)NCC#N | -6.68%
Cc1ccc(CCNC(=O)CCS(=O)(=O)Cc2ccc(C)cc2)cc1 | -1.21%
Cc1cccc(COc2ccc(Br)cc2/C=C2/NC(=O)NC2=O)c1 | 3.8%
CCCCN(Cc1ccccc1)Cc1cccc(Oc2ccc(Cl)cc2)c1 | -7.34%
O=CNC(=O)c1ccccc1C(=O)O | -2.27%
Cc1cccc(OCc2nnc(NC(=O)C(F)(F)F)s2)c1C | -1.93%

— paper PMC6919601, “Identification of Plasmodium dipeptidyl aminopeptidase allosteric inhibitors by high throughput screening” (PLoS ONE, 2019)
